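Grown in 96-well plates, cells were treated for 48 hours with each compound at five concentrations. Insufficient inhibition: endpoint recorded as highest concentration tested. GI50 is the concentration that inhibits growth by half.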 Active and inactive are the calls of the source. No stated cut-off is given here; in the data, active = GI50 up to about 1.1 µM and inactive = higher. Bounds are passed on as bounds.

The test system of this assay is NCI-H322M. The assay is described as follows: growth of human tumour cells (NCI), 48 h.
Take `COc1cc(C=C2C(=O)NC(=S)NC2=O)cc(OC)c1OC`: the GI50 was inactive: > 100 µM.

`O=C1c2ccccc2C(=O)c2c(O)c(NCCCNCCO)cc(O)c21`: the GI50 is inactive: 6.7 µM.

Consider `Cc1ccc(S(=O)(=O)NC(=O)OC23COCN2COC3)cc1`, for which the GI50 is inactive: > 100 µM.

Regarding `Cc1ccc(S(=O)(=O)c2ccc([N+](=O)[O-])o2)cc1`, the GI50 is inactive: 16.7 µM.

Regarding `COc1cc2oc(-c3ccc(O)cc3)cc(=O)c2c(O)c1C1OC(CO)C(O)C(O)C1O` (stereo not drawn), the GI50 is inactive: > 100 µM.

As to `O=C(O)c1ccc([N+](=O)[O-])c2c(=O)c3ccccc3[nH]c12`, the GI50 was inactive: > 100 µM.

Consider `Cc1ccc(C2NC(=O)c3ccccc3N2)c(C)c1` (stereo not drawn), for which the GI50 was inactive: 7.4 µM.

In the case of `Nc1cc2[nH]c(=O)c3cc(Cl)ccc3c2cc1Cl`, the GI50 is inactive: 9.82 µM.

As for `Clc1cccc(N2CCN(CCCN3CCc4c([nH]c5ccccc45)C3c3cccnc3)CC2)c1` (stereo not drawn), the GI50 was inactive: > 10 µM.

With `O=C(O)CCCCCCC[C@H]1S[C@H]1CCCCCCO`, the GI50 was inactive: > 100 µM.

On to `COC(=O)CCC(NC(=S)N/N=C(\C)c1cccs1)C(=O)OC` (stereo not drawn), for which the GI50 is inactive: > 100 µM.

Turning to `OCC1OC(NC(=S)NCCC(F)(F)C(F)(F)C(F)(F)C(F)(F)C(F)(F)C(F)(F)F)C(O)C(O)C1O` (stereo not drawn), the GI50 was inactive: > 100 µM.

As for `O=C(Cc1ccccc1)NN1C(=O)/C(=C\c2cccc(O)c2)S/C1=N\c1ccccc1`, the GI50 is inactive: > 100 µM.

Turning to `Cc1ccc2[nH]c3c(c(=O)n(C)c(=O)n3C)c2c1`, the GI50 was inactive: > 100 µM.

For `Sc1nnc(CNc2ccc(-c3nnc(S)n3-c3ccc(Cl)cc3)cc2)n1-c1ccc(Cl)cc1`, the GI50 is inactive: 23.3 µM.

As for `CC1[C@@H](OCc2ccccc2)COC(=O)N1Cc1ccccc1` (stereo partly drawn), the GI50 was inactive: > 100 µM.

With `C=C[C@H]1CN2CCc3c([nH]c4cc(O)ccc34)[C@@H]2C[C@@H]1C[C@H]1c2[nH]c3ccccc3c2CCN1C`, the GI50 was inactive: 4.94 µM.

Consider `CC1=CC(=O)NP(=O)(C23CC4CC(CC(C4)C2)C3)N1` (stereo not drawn), for which the GI50 was inactive: > 100 µM.

Consider `O=C1C2=C(c3ccccc31)C(c1ccc(Cl)cc1)NC(S)=N2` (stereo not drawn), for which the GI50 was inactive: 22.6 µM.

Consider `CC(Cn1c(=O)oc2ccccc21)N(C)C` (stereo not drawn), for which the GI50 is inactive: > 100 µM.

As to `CCOC(=O)c1c(C)n(-c2ccc(C)cc2)c(=O)c2ccccc2c(=O)c2c(=O)ccc(=O)c1=2`, the GI50 was inactive: 20 µM.

For the molecule `COC(=O)C12OCC34C(CC5C(C)C6=CC(=O)OC6=CC5(C)C3C(O)C1O)OC(=O)C(O)C24` (stereo not drawn), the GI50 is inactive: 7.08 µM.

Take `O=P(O)(Cc1ccccc1)c1ccccc1-c1ccccc1`: the GI50 is inactive: > 100 µM.

`COC(=O)c1cc(C)ccc1CC(Cc1cccc(C)c1)C(=O)OC` (stereo not drawn): the GI50 is inactive: > 100 µM.

In the case of `COc1nn(Cc2ccccn2)c2ccc([N+](=O)[O-])cc12`, the GI50 was inactive: > 100 µM.

`COc1ccc(/C=C2\N=C3N(Cc4ccccc4)C=C(N)N3C2=O)cc1`: the GI50 is inactive: > 100 µM.

Turning to `COc1ccc(N[C@H]([C@@H](c2ccccc2)[S+]([O-])c2ccc(C)cc2)C(F)(F)F)cc1` (stereo partly drawn), the GI50 was inactive: > 100 µM.

As to `O=C1O/C(=C\c2ccccc2)N(c2ccccc2)C1=O`, the GI50 was inactive: > 100 µM.

`c1ccc(CN[C@]23C4C5CC6C7C5C2C7[C@@](NCc2ccccc2)(C64)N3Cc2ccccc2)cc1` (stereo partly drawn): the GI50 is inactive: > 100 µM.

For `O=c1cc(-c2ccncc2)[nH]c2cc3c(cc12)OCO3`, the GI50 was inactive: > 100 µM.

Consider `CCC(c1c[nH]c2ccc(Br)cc12)c1c[nH]c2ccc(Br)cc12`, for which the GI50 was inactive: 5.36 µM.

As for `O=Cc1cccc2ccc3ccccc3c12`, the GI50 was inactive: 20.4 µM.

For `O=c1[nH]nc(Cc2ccc(Cl)cc2)n1/N=C\c1ccc(/C=N/n2c(Cc3ccc(Cl)cc3)n[nH]c2=O)cc1`, the GI50 is inactive: > 100 µM.

With `O=C(CC1(O)C(=O)Nc2c(Cl)cc(Cl)cc21)c1ccco1` (stereo not drawn), the GI50 was inactive: 69.7 µM.

For `Cc1ccccc1NC(=O)NC(Oc1ccccc1)(C(F)(F)F)C(F)(F)F`, the GI50 is inactive: > 100 µM.

Regarding `CCCCC1=C(C(=O)N2CCOCC2)C2(OCCO2)C1=O`, the GI50 is inactive: 37.3 µM.

`O=C(Nc1cc(Cl)c(Cl)cc1Cl)C(=O)C1C=CCS1(=O)=O` (stereo not drawn): the GI50 is inactive: > 100 µM.

For `COC(=O)[C@H](COC(C)(C)C)NC(=O)N[C@H](C)c1ccccc1`, the GI50 was inactive: > 100 µM.

As to `NC1NCCC(=O)N1CCc1c[nH]c2ccccc12` (stereo not drawn), the GI50 is inactive: 26.7 µM.

For `CC(=O)OCC1(CNc2nc(N)ncc2C#N)CC(CCc2ccccc2)C1` (stereo not drawn), the GI50 is inactive: > 100 µM.

As to `COC(=O)[C@]1(C)CCCn2c(=O)n(-c3ccccc3)c(=O)n21`, the GI50 is inactive: > 100 µM.

For `OC1CN2CCS[C@H]2C(O)C1O` (stereo partly drawn), the GI50 was inactive: > 100 µM.

Take `COc1cc(/C=C2\C[C@H]3[C@@H]4CC=C5C[C@@H](OC(C)=O)CC[C@]5(C)[C@H]4CC[C@]3(C)\C2=N\O)cc(OC)c1OC`: the GI50 is inactive: 8.55 µM.

On to `Cc1ccc(S(=O)(=O)n2cncc2CO)cc1`, for which the GI50 is inactive: > 100 µM.

Turning to `OC1CSCCSCCCSCCSC1`, the GI50 is inactive: > 100 µM.

As for `N#Cc1c(N2CCCC2)ncn(-c2ccccc2)c1=O`, the GI50 is inactive: > 100 µM.

Take `O=S(=O)(N/N=C/c1cccc(Cl)c1Cl)c1ccccc1`: the GI50 is inactive: > 100 µM.

For the molecule `CCOC(=O)CCN1C(=O)C(=O)N(c2ccc(OC)cc2)C1=S`, the GI50 is inactive: > 100 µM.

Turning to `CC(C)CCNC(=O)c1ccc(CNC(=O)/C=C/c2ccc(-c3ccccc3[N+](=O)[O-])o2)cc1`, the GI50 was inactive: > 100 µM.

For the molecule `Cc1cc(C)nc(NS(=O)(=O)c2ccc(Nc3c4ccccc4nc4c(C(=O)Nc5ccc(S(=O)(=O)N=C(N)N)cc5)ccc(Cl)c34)cc2)n1`, the GI50 is inactive: 23.7 µM.

`Cn1c(=O)n(C2(C)C[Se]C2)c2ccccc21`: the GI50 was inactive: > 100 µM.

Turning to `COC(=O)/C(C#N)=C(\Nc1ccccc1)N1CCCCC1`, the GI50 was inactive: > 100 µM.

As to `N=C1N(/N=C/c2ccccn2)/C(=N\c2ccccc2)C(=S)N1c1ccccc1`, the GI50 was inactive: 11.2 µM.

With `c1ccc(C(NC2CCCCC2NCCNC2CCCCC2NC(c2ccccc2)(c2ccccc2)c2ccccc2)(c2ccccc2)c2ccccc2)cc1` (stereo not drawn), the GI50 is inactive: > 100 µM.

For `O=C1Cc2cn[nH]c2-c2ccccc2N1`, the GI50 was inactive: > 86.9 µM.

In the case of `C=C1C(=O)OC2CC(C)C3C=CC(=O)C3CC12` (stereo not drawn), the GI50 was inactive: 7.28 µM.

Turning to `O=c1oc2ccccc2c(O)c1C(C/C(CCN1CCCC1)=N\Nc1ccccc1)c1ccccc1` (stereo not drawn), the GI50 is inactive: > 100 µM.

Consider `O=C(O)CCC(NC(=O)c1ccc(Nc2nc3ccccc3nc2C(=O)O)cc1)C(=O)O` (stereo not drawn), for which the GI50 is inactive: > 100 µM.

As to `COc1ccc2c3c1O[C@]1(C)C34CCN(C)C(C2)C42C=C[C@@]1(OC)c1c(O)ccc(O)c12`, the GI50 is inactive: > 100 µM.

Consider `OC1C2CCC3C2CC(C(O)(c2ccccc2)c2ccccc2)C13` (stereo not drawn), for which the GI50 is inactive: 58.7 µM.

Take `COC(=O)/C(C#N)=C1\NN=NN1CCCc1ccccc1`: the GI50 was inactive: > 100 µM.

For `O=[N+]([O-])/C(C(Cl)=C(Cl)Cl)=C(/Nc1ccccc1)SCc1ccccc1`, the GI50 was inactive: 29.4 µM.

In the case of `C=C(CS(=O)(=O)c1ccccc1)[P+](c1ccccc1)(c1ccccc1)c1ccccc1`, the GI50 is inactive: 32.4 µM.

Consider `CC1CC2=C(C1)C(C1(C)C(=O)CC3C(C1=O)C3(C)C)C(C)C2=O` (stereo not drawn), for which the GI50 is inactive: > 100 µM.

With `Brc1c(C#CCC(c2ccccc2)(c2ccccc2)c2ccccc2)ccc(C#CCC(c2ccccc2)(c2ccccc2)c2ccccc2)c1Br`, the GI50 was inactive: > 100 µM.

On to `CCCC(=O)Nc1cc(C(=O)N2C[C@H]3C[C@@]34C2=CC(=O)c2[nH]cc(C)c24)n(COC)c1`, for which the GI50 was active: 0.652 µM.

With `CC1C(C)(C)C23CC12C1(OCCO1)C3Br` (stereo not drawn), the GI50 was inactive: > 100 µM.

Take `CC1(C)CN=C(Nc2ccc(F)cc2)S1`: the GI50 is inactive: > 100 µM.

Regarding `O=C(CC1(O)C(=O)Nc2ccccc21)c1ccc(O)cc1` (stereo not drawn), the GI50 is inactive: > 100 µM.

`CSc1nc(=O)n(CCC#N)nc1SC`: the GI50 is inactive: > 100 µM.

With `C=C=C(CC)C(C(=O)OC)N(CC)CC` (stereo not drawn), the GI50 was inactive: > 100 µM.

Regarding `O=C(Nc1cnc(O)nc1O)C(Cl)Cl`, the GI50 is inactive: > 100 µM.

As for `CC(C)(C)N(Cc1ccccc1)C(=O)/C=C\[S+]([O-])c1ccccc1` (stereo not drawn), the GI50 is inactive: 13.7 µM.

As for `Cc1nc(Nc2nc3ccccc3[nH]2)[nH]c(=O)c1CCO`, the GI50 was inactive: > 100 µM.

In the case of `CCc1cccc(C(C)C)c1NC(=O)C(=O)C(CC(=O)Nc1ccc(Cl)c(Cl)c1)C(=O)OC` (stereo not drawn), the GI50 is inactive: > 100 µM.

Regarding `O=c1[nH]nc(Cc2ccccc2)n1/N=C/c1cccnc1`, the GI50 was inactive: > 100 µM.

Regarding `CCCCCCCCCCCCCS(=O)(=O)O`, the GI50 was inactive: > 100 µM.

As for `CN(C)CCOC1(Cc2ccc(Cl)cc2Cl)CCC(C(C)(C)C)CC1` (stereo not drawn), the GI50 is inactive: 1.87 µM.

As to `COc1cccc2c1[C@H]1CO[C@H]3C4C[C@H](C(=O)O)C([C@@H](C2)N13)N4C` (stereo partly drawn), the GI50 was inactive: 5.7 µM.

`COC(=O)CNC(=O)CCC(C)[C@H]1CCC2C3C(C[C@H](OC(C)=O)[C@@]21C)[C@@]1(C)CCC2(C[C@H]1C[C@H]3OC(C)=O)OOC1(CC[C@]3(C)C4C[C@H](OC(C)=O)[C@@]5(C)C(CC[C@@H]5C(C)CCC(=O)NCC(=O)OC)C4[C@H](OC(C)=O)C[C@@H]3C1)OO2` (stereo partly drawn): the GI50 was inactive: 14.1 µM.

For the molecule `Cn1c(=O)nc2n(-c3ccc(Br)cc3)c3ccccc3nc-2c1=O`, the GI50 was inactive: 5.61 µM.

Consider `CC(C)=Cc1cc2c(cc1O)CCC1C2CC[C@@]2(C)C1CC[C@@H]2O` (stereo partly drawn), for which the GI50 was inactive: 5.33 µM.

As to `Cc1ccc2nc(-c3ccc(C(C)(C)C)cc3)oc(=O)c2c1`, the GI50 is inactive: 45.4 µM.
